The campaign covered roughly 150,000 compounds. About 540 (0.36%) showed an effect of 50% or more. Some of the results follow.
System: Plasmodium falciparum
Assay: Primary screen in NF54 nanoGlo assay, in single point, at 2uM, 72h; a lower Z score goes with more inhibition
Assay type: functional, Erythrocyte
Details: timepoint 72 hour

Row | SMILES | % Inhibition [%] | Z score
1 | Cc1[nH]c(=O)c(C#N)c(C)c1CCC(=O)N1CC(C)CC(C)C1 (stereo not drawn) | -15 | 1.55
2 | O=C([C@H]1C[C@@H](F)CN1S(=O)(=O)c1ccc(F)c(Cl)c1)N1CCOCC1 | -16 | 2.15
3 | FC(F)(F)c1cc([C@@H](NCc2ccon2)C2CC2)ccc1Cl | -5 | 0.41
4 | CCCc1cc(C(=O)N2CCC3(CC2)CN([C@@H](C)CCC)C(=O)O3)[nH]n1 | 20 | -2.79
5 | COc1ccc(-c2nnc(Cc3nc(-c4ccc(Cl)cc4)no3)o2)cc1OC | -11 | 1.44
6 | CCC(C)C(CO)NCc1cnc(C2CCC2)s1 (stereo not drawn) | -1 | 0.13
7 | Cc1ccc(C(C)NC(=O)NCC2CC(=O)N(C3CC3)C2)cc1F (stereo not drawn) | -6 | 0.62
8 | O=C(c1ccc2ccccc2c1)N1CCn2c(nnc2C(F)(F)F)C1 | -12 | 1.14
9 | Cc1nn(C)c2nc(NCCS(=O)(=O)N(C)C)sc12 | -7 | 1.29
10 | C=CCN(CC=C)c1ncc(C(N)=O)cc1Cl | -3 | 0.38
11 | Cc1cc(C)nc(NC[C@H](O)COc2ccc(F)cc2)n1 | 5 | -0.6
12 | Cc1n[nH]c(C)c1CN[C@@H](C(C)C)[C@H](O)C(F)(F)F | -2 | 0.25
13 | COc1ccccc1C(=O)N1CCN(c2cc(=O)n(C)c(=O)n2C)CC1 | -2 | 0.24
14 | Cc1ccc(CNc2nnc(CCC(C)C)o2)nc1 | 3 | -0.61
15 | Cc1nc(C)c(CC(=O)N[C@H]2COCC[C@@H]2Oc2ccccn2)s1 | -3 | 0.35
16 | COCCn1ccc2ccn(CC3CC3)c2c1=O | -18 | 1.62
17 | O=C1NC(=O)C2(CCN(C(=O)c3noc4c3CCCC4)CC2)N1 | 30 | -3.26
18 | Cc1ccc(CNC(=O)c2ccc(-n3nc(C(F)(F)F)c4c3CCCC4)cc2)cc1 | -7 | 0.85
19 | O=C(O)[C@@H]1CCCCN1Cc1ccc2occc2c1 | -17 | 2.26
20 | OCC#Cc1ccc(OC(F)(F)F)cn1 | -8 | 1.19
21 | CCCC[C@H](NC(=O)N1CCN(c2ncc[nH]c2=O)CC1)c1cccnc1 | -9 | 1.83
22 | CCn1ccc(NC(=O)c2ccco2)n1 | -3 | 0.49
23 | COC(=O)C(C)(C)NC(=O)c1ccccc1 | 33 | -3.71
24 | COc1cc([C@H]2CC(=O)Nc3c2ncn3-c2cccnc2)ccc1O | 0 | -0.06

Source: ChEMBL document CHEMBL4888484, “Replenishing the malaria drug discovery pipeline: Screening and hit evaluation of the MMV Hit Generation Library 1 (HGL1) against asexual blood stage Plasmodium falciparum ,using a nano luciferase reporter read-out” (2022)
